Experimental data from the supplement of paper PMC11060735.
Values joined by “and” are separate entries in the source; they are usually repeats but may differ in a detail not shown here. Identical values can stand only once. Counter-ions that a name gives are not always drawn. Screen size: about 1,800 compounds; about 50 (3%) showed activity. The list shows a part of the results.

The molecules below were run on mouse p16Ink4a+/- lung fibroblasts (INKBRITE, bleomycin-injured) (assay: percentage of GFP+ (p16Ink4a+) fibroblasts among all cells in well; higher = less depletion of p16Ink4a+ cells, active = 20 or less). Settings: 1 µM; 3 days.
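Further: fibroblasts sorted 14 days after bleomycin, GFP+ and GFP− mixed 1:1 in 384-well plates (GFP− as in-well control), imaged after Hoechst and NucView530 staining, reference wells lacked compound.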

Structure (SMILES)	percentage of GFP+
COC(=O)Nc1nc2cc(Sc3ccccc3)ccc2[nH]1 [Fenbendazole]	inactive: 20.8%
C#C[C@]1(O)CC[C@H]2[C@@H]3CCc4cc(O)ccc4[C@H]3CC[C@@]21C [Ethinyl Estradiol]	inactive: 40.7%
CN1C(CCl)Nc2cc(Cl)c(S(N)(=O)=O)cc2S1(=O)=O (centres undefined) [Methyclothiazide]	inactive: 41.4%
CC(C(=O)O)c1ccc2c(c1)Cc1cccnc1O2 (centres undefined) [Pranoprofen]	inactive: 39%
CCOC(=O)[C@H](CCc1ccccc1)N[C@@H](C)C(=O)N1Cc2cc(OC)c(OC)cc2C[C@H]1C(=O)O [Moexipril]	inactive: 44.9%
C[C@@](Cc1ccc(O)c(O)c1)(NN)C(=O)O [S-(-)-carbidopa, Carbidopa]	inactive: 47.3%
Cc1c(-c2ccc(O)cc2)n(Cc2ccc(OCCN3CCCCCC3)cc2)c2ccc(O)cc12 [Bazedoxifene]	inactive: 47.1%
COC(=O)[C@]12CCC(C)(C)C[C@@H]1[C@@H]1C(=O)C=C3[C@]4(C)C=C(C#N)C(=O)C(C)(C)[C@@H]4CC[C@@]3(C)[C@]1(C)CC2 [Bardoxolone Methyl]	active: 5.23%
C#C[C@]1(OC(C)=O)CC[C@H]2[C@@H]3CCC4=C[C@@H](OC(C)=O)CC[C@@H]4[C@H]3CC[C@@]21C [Ethynodiol Diacetate]	inactive: 52.1%
CC(C)(C)c1ccc(-c2nc3ccccc3[nH]2)cc1	inactive: 38.6%
NC(=O)[C@@H](CCC(F)(F)F)N(Cc1ccc(-c2ncon2)cc1F)S(=O)(=O)c1ccc(Cl)cc1 [Avagacestat]	inactive: 49.9%
COC(=O)[C@H]1[C@H]2C[C@@H]3c4[nH]c5cc(OC)ccc5c4CCN3C[C@H]2C[C@@H](OC(=O)c2cc(OC)c(OC)c(OC)c2)[C@@H]1OC [Reserpine]	inactive: 36.2%
Cc1ccc(C(=O)Nc2cccc(C(F)(F)F)c2)cc1Nc1nc(-c2cccnc2)nc2c1cnn2C	inactive: 37.9%
O=C1[C@H](CC[C@H](O)c2ccc(F)cc2)[C@@H](c2ccc(O)cc2)N1c1ccc(F)cc1 [Ezetimibe]	inactive: 41.4%
CC(C)OC(=O)C(C)(C)Oc1ccc(C(=O)c2ccc(Cl)cc2)cc1 [Fenofibrate]	inactive: 45.5%
COc1cc(C2Oc3ccc(C4Oc5cc(O)cc(O)c5C(=O)C4O)cc3OC2CO)ccc1O (centres undefined) [Silymarin]	inactive: 46.3%
Oc1c(Cl)cc(Cl)c2cccnc12 [Chloroxine]	inactive: 38.3%
O=C(O)CCNC(=O)c1ccccc1 [Betamipron]	inactive: 46%
COc1cc([C@@H]2c3cc4c(cc3[C@@H](O[C@@H]3O[C@@H]5CO[C@@H](C)O[C@H]5[C@H](O)[C@H]3O)[C@H]3COC(=O)[C@H]23)OCO4)cc(OC)c1O [Etoposide]	active: 19.3%
Cn1cnc([N+](=O)[O-])c1Sc1ncnc2[nH]cnc12 [Azathioprine]	inactive: 43.6%
COC(=O)[C@H](Cc1ccccc1)NC(=O)[C@@H](N)CC(=O)O [Aspartame]	inactive: 44.2%
CCNC(=O)c1noc(-c2cc(C(C)C)c(O)cc2O)c1-c1ccc(CN2CCOCC2)cc1 [Luminespib (NVP-AUY922)]	active: 6.33%
Cc1cc(C(C)Nc2ccccc2)c2nc(N3CCOCC3)cc(=O)n2c1 (centres undefined)	inactive: 48.7%
CO/N=C(/C(=O)N[C@@H]1C(=O)N2C(C(=O)O)=C(CSC(=O)c3ccco3)CS[C@H]12)c1csc(N)n1 [Ceftiofur HCl]	inactive: 39.5%
O=NN(CCCl)C(=O)NC1CCCCC1 [Lomustine]	inactive: 40.6%

Structure (SMILES)	percentage of GFP+
O=C(Nc1ccc(-c2ccnc(Nc3ccc(N4CCOCC4)cc3)n2)cc1)[C@@H]1CCCN1	inactive: 42.6%
c1coc(CNc2ncnc3[nH]cnc23)c1 [Kinetin]	inactive: 41.6%
Oc1ccc(-c2nc(-c3ccc(F)cc3)c(-c3ccncc3)[nH]2)cc1	inactive: 44.2%
CCC(C)(Oc1ccc(C2(c3ccc(OC(C)(CC)C(=O)O)cc3)CCCCC2)cc1)C(=O)O (centres undefined) [Clinofibrate]	inactive: 52.6%
C=CC(=O)Nc1ccc2ncnc(Nc3cccc(Br)c3)c2c1	inactive: 43.9%
NC(=O)Nc1cc(-c2cccc(F)c2)sc1C(=O)N[C@H]1CCCNC1	inactive: 24%
CN1CCN(S(=O)(=O)c2ccc(-c3cnc(N)c(C(=O)Nc4cccnc4)n3)cc2)CC1	inactive: 24%
O=C(Nc1ccccc1)N1CCN(c2nc(-c3ccccc3)ns2)CC1	inactive: 52%
O=C(NCCN1CCOCC1)c1ccc(Cl)cc1 [Moclobemide]	inactive: 49.7%
C=CC(=O)Nc1cccc(Nc2nc(Nc3ccc(Oc4ccnc(C(=O)NC)c4)cc3)ncc2F)c1	inactive: 46.4%
NC[C@H](O)c1ccc(O)c(O)c1 [Norepinephrine]	inactive: 31.9%
COCCCN1CCC(NC(=O)c2cc(Cl)c(N)c3c2OCC3)CC1 [Prucalopride]	inactive: 46.2% and inactive: 35.5%
COc1ccc(-c2nc(N3CCOCC3)c3sc(CN(C)c4ncc(C(=O)NO)cn4)cc3n2)cn1 [Fimepinostat]	active: 3.62%
CCOC(=O)[C@H](CCc1ccccc1)N[C@H]1CCc2ccccc2N(CC(=O)O)C1=O [Benazepril]	inactive: 48.5%
CC(C)(C)c1cc(C(C)(C)C)c(NC(=O)c2cnc3ccccc3c2O)cc1O [Ivacaftor]	inactive: 38%
CCOc1ccccc1O[C@H](c1ccccc1)[C@H]1CNCCO1 [Reboxetine]	inactive: 42.5%
COc1ccc(-n2nc(C(N)=O)c3c2C(=O)N(c2ccc(N4CCCCC4=O)cc2)CC3)cc1 [Apixaban]	inactive: 47.6%
Nc1nc(OCc2cc(Br)cs2)c2[nH]cnc2n1 [Lomeguatrib]	inactive: 42.4%
CC1(C)CCC2=C(O1)c1ccccc1C(=O)C2=O [beta-Lapachone]	inactive: 49.7%
Nc1nc(O)c2ncn(COCCO)c2n1 [Aciclovir]	inactive: 45.4%
Cc1ccc(=O)n(-c2ccccc2)c1 [Pirfenidone]	inactive: 46%
CCc1cccc(CC)c1NC(=O)N1Cc2[nH]nc(NC(=O)c3ccc(N4CCN(C)CC4)cc3)c2C1	inactive: 39.6%
COc1cc(NC(=O)c2ccc(-c3ccc(Cl)cc3)o2)cc(OC)c1	inactive: 52%
Nc1ccn([C@@H]2O[C@H](CO)[C@@H](O)[C@H]2O)c(=O)n1 [Cytidine]	inactive: 48.9%
CC1Cc2ccccc2N1NC(=O)c1ccc(Cl)c(S(N)(=O)=O)c1 (centres undefined) [Indapamide]	inactive: 45.4%

Structure (SMILES)	percentage of GFP+
O=C(O)P(=O)(O)O [Foscarnet]	inactive: 45.3%
FC(F)(F)c1ccc(/C=C/c2nc(COc3ccc(CCCCn4ccnn4)cc3)co2)cc1 [Mubritinib]	inactive: 39.2%
Cc1ccc(S(=O)(=O)Cc2nc(-c3ccc(C(=O)NCc4cccnc4)cc3)oc2C)cc1	inactive: 23.2%
COc1cc(NC(=O)c2ccccn2)ccc1Cl	inactive: 40.1%
CC(C)(CO)[C@@H](O)C(=O)NCCC(=O)O [Pantothenic Acid]	inactive: 42.7%
OCCn1cc(-c2ccc3c(c2)CC/C3=N\O)c(-c2ccncc2)n1	inactive: 32.8%
COc1cc(OC)c(NC(=O)Nc2cc(C)on2)cc1Cl	inactive: 47.9%
OCc1ccccc1O[C@@H]1O[C@H](CO)[C@@H](O)[C@H](O)[C@H]1O [Salicin]	inactive: 50.5%
N#CC(c1ccc(Cl)cc1)c1c(Cl)cc(-n2ncc(=O)[nH]c2=O)cc1Cl (centres undefined) [Diclazuril]	inactive: 33.8%
CCCCc1ncc(/C=C(\Cc2cccs2)C(=O)O)n1Cc1ccc(C(=O)O)cc1 [Eprosartan]	inactive: 50.3%
O=c1ccc2ccccc2o1	inactive: 39.3%
O=c1ccc2ccc(O)c(O)c2o1 [Daphnetin]	inactive: 39.9%
Cc1nc(N)sc1-c1ccnc(Nc2ccc(N3CCOCC3)cc2)n1	inactive: 40%
COc1ccc([C@H]2CNC(=O)C2)cc1OC1CCCC1 [(S)-Rolipram]	inactive: 42.2%
Cc1nc(C(=O)NCC(=O)O)c(O)c2ccc(Oc3ccccc3)cc12	inactive: 43%
CC(C)n1c(/C=C/[C@@H](O)C[C@@H](O)CC(=O)O)c(-c2ccc(F)cc2)c2ccccc21 [Fluvastatin]	active: 19.7%
Cc1ccc(N(CC2=NCCN2)c2cccc(O)c2)cc1 [Phentolamine]	inactive: 45.6%
O=c1cc(N2CCOCC2)oc2c(-c3cccc4c3sc3ccccc34)cccc12	inactive: 30%
COc1cc(-c2cc(-c3cccc(O)c3)cnc2N)cc(OC)c1OC	inactive: 48.2%
O=C(Nc1cc(C(F)(F)F)ccc1N1CCCCC1)c1ccncc1	inactive: 39.9%
Cc1cc(C)c2c(c1)[C@@H](N(Cc1cc(C(F)(F)F)cc(C(F)(F)F)c1)c1nnn(C)n1)CCCN2C[C@H]1CC[C@H](C(=O)O)CC1 [Evacetrapib]	inactive: 44.9%
CO[C@H]1C[C@@H]2CC[C@@H](C)[C@@](O)(O2)C(=O)C(=O)N2CCCC[C@H]2C(=O)O[C@H]([C@H](C)C[C@@H]2CC[C@@H](O)[C@H](OC)C2)CC(=O)[C@H](C)/C=C(\C)[C@@H](O)[C@@H](OC)C(=O)[C@H](C)C[C@H](C)/C=C/C=C/C=C/1C [Rapamycin]	inactive: 37.8%
c1ccc(NCc2ccc(CNc3ccccn3)cc2)nc1	inactive: 47.2%
CN1CCN(CCOc2cc(OC3CCOCC3)c3c(Nc4c(Cl)ccc5c4OCO5)ncnc3c2)CC1 [Saracatinib]	inactive: 46.2%
